Measured values: the supplement of paper PMC9446081
Screen size: about 39,000 compounds; about 220 (0.56%) showed activity. The list shows a part of the results.

These compounds were tested on Escherichia coli K-12 BW25113 (assay: relative growth (OD600 normalised to plate interquartile mean) (fraction); higher = less growth inhibition, active = 0.2 or less). Settings: 50 µM; LB; incubation time: overnight (16-24 h).
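Note: static incubation at 37 °C against the wild-type strain, values averaged over two biological replicates.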

Row | SMILES | relative growth
1 | O=C(C[C@@H]1CC[C@H]2[C@@H](COC[C@@H](O)CN2Cc2cc(F)ccc2F)O1)N[C@H]1CCN(Cc2ccccc2)C1 | inactive: 0.988
2 | C[C@H](CO)N1C[C@H](C)[C@H](CN(C)Cc2ccc(Cl)c(Cl)c2)Oc2ccc(NC(=O)Nc3ccc(F)cc3)cc2CC1=O | inactive: 0.997
3 | CCCc1cc(=O)n2ncnc2[nH]1 | inactive: 0.904
4 | Cc1noc(C)c1NC(=O)N(C)C[C@H]1OCCCC[C@@H](C)Oc2ccc(NC(=O)CCC(F)(F)F)cc2C(=O)N([C@@H](C)CO)C[C@@H]1C | inactive: 1.03
5 | C[C@@H]1CCCCO[C@H](CN(C)S(=O)(=O)c2ccc(Cl)cc2)[C@@H](C)CN([C@@H](C)CO)C(=O)c2cc(NC(=O)c3ccccc3)ccc2O1 | inactive: 1.03
6 | NCc1cccc(O)c1 | inactive: 0.98
7 | COc1ccc2c3c(n(c2c1)C)[C@@H](CO)N(CC1CCCCC1)C[C@]13CCN(CC1)Cc1nccs1 | inactive: 0.996
8 | Cn1c([C@H]2C=C(C(=O)N3CCOCCOCCOCCOCC3)O[C@@H](OCCCCO)C2)cc(=O)n1-c1ccccc1 | inactive: 0.944
9 | NS(=O)(=O)OC[C@H]1C[C@@H](Nc2ccnc3cc(-c4cccc(SC(F)(F)F)c4)nn23)[C@H](O)[C@@H]1O | inactive: 0.937
10 | O=C1C[C@]2(c3ccc([N+](=O)[O-])cc3)C(=O)N(Cc3ccccc3)c3cc(CO)ccc3[C@H]2N1C1CCCCC1 | inactive: 1.01
11 | C[C@@H]1CCCCO[C@@H](CN(C)Cc2ccccc2)[C@@H](C)CN([C@H](C)CO)C(=O)c2cc(NC(=O)Nc3ccccc3)ccc2O1 | inactive: 0.996
12 | Cc1noc(C)c1S(=O)(=O)N(C)C[C@H]1OCCCC[C@@H](C)Oc2ccc(NC(=O)Nc3ccc(F)cc3)cc2C(=O)N([C@@H](C)CO)C[C@@H]1C | inactive: 1.02
13 | Cc1noc(C)c1S(=O)(=O)N(C)C[C@@H]1OCCCC[C@@H](C)Oc2ccc(NC(=O)Nc3ccc(F)cc3)cc2C(=O)N([C@H](C)CO)C[C@@H]1C | inactive: 1.03
14 | C[C@@H]1CN([C@H](C)CO)C(=O)Cc2cc(NC(=O)Nc3cccc4ccccc34)ccc2O[C@H]1CN(C)Cc1ccc(C(=O)Nc2ccccc2N)cc1 | inactive: 1.01
15 | O=C1OCCC/C=C\[C@H]2O[C@@]34C=CCN(Cn5nnc6ccccc65)C(=O)[C@H]3N(CCO)C(=O)[C@@H]4[C@@H]12 | inactive: 0.997
16 | O=C(O)CN(CCN(CC(=O)O)CC(=O)O)CC(=O)O.[Na+].[Na+] | inactive: 1
17 | C[C@H]1CN([C@@H](C)CO)C(=O)c2cc(NC(=O)C3CCCCC3)ccc2O[C@@H]1CN(C)Cc1ccc(C(F)(F)F)cc1 | inactive: 1.02
18 | C[C@H](CO)N1C[C@H](C)[C@H](CN(C)CC2CCCCC2)Oc2c(NC(=O)CCCCCC(=O)Nc3ccccc3N)cccc2C1=O | inactive: 1.02
19 | CCO[C@H]1[C@H]2CC[C@@H]1N(C(=O)CS(C)(=O)=O)CCO2 | inactive: 0.993
20 | C[C@@H]1CN([C@@H](C)CO)C(=O)Cc2cc(NC(=O)C3CCCCC3)ccc2O[C@@H]1CN(C)Cc1ccc(Cl)c(Cl)c1 | inactive: 1
21 | CC(C)(C)OC(=O)C[C@H]1CC=CC[C@@H](CC(=O)N[C@H](CO)Cc2ccccc2)C(=O)N2CCC[C@@H]2COC1=O | inactive: 0.975

Row | SMILES | relative growth
22 | COc1ccc(NC(=O)N(C)C[C@@H]2Oc3ccc(NC(=O)CCN4CCOCC4)cc3CC(=O)N([C@H](C)CO)C[C@@H]2C)cc1 | inactive: 1.01
23 | CC(C)=CCCC(C)=CCO | inactive: 0.885
24 | CCS(=O)(=O)Nc1ccc2c(c1)C(=O)N(C)[C@H]1CC[C@@H](CC(=O)N3CCN(C)CC3)O[C@@H]1CO2 | inactive: 0.903
25 | C[C@@H]1CN([C@H](C)CO)C(=O)c2c(c3ccccc3n2C)-c2ccccc2CO[C@@H]1CN(C)C(=O)Nc1cccc(F)c1 | inactive: 1.03
26 | O=C(CN1CCNCC1)NC1CCCCC1 | inactive: 1
27 | CC(C)NC(=O)N(C)C[C@H]1Oc2cc(C#Cc3cccc(F)c3)ccc2S(=O)(=O)N([C@@H](C)CO)C[C@H]1C | inactive: 0.989
28 | C[C@H](CO)N1C[C@H](C)[C@@H](CN(C)C(=O)Nc2cccc3ccccc23)Oc2ccc(NC(=O)Nc3ccc(C(F)(F)F)cc3)cc2CC1=O | inactive: 1.04
29 | C[C@@H]1CN([C@H](C)CO)C(=O)c2cccc(NC(=O)C3CCOCC3)c2O[C@H]1CN(C)S(=O)(=O)c1ccc(Cl)cc1 | inactive: 0.999
30 | CCC(=O)N1C[C@]2(C1)CN([C@H](CO)c1c2c2ccc(cc2n1C)OC)C(=O)CN1CCOCC1 | inactive: 1.02
31 | N=C(N)SCc1ccc(B(O)O)cc1 | inactive: 0.993
32 | C=C1C(=O)OC2CC3(C)CCCC(C)C3=CC12 (stereo not drawn) | inactive: 1.07
33 | C[C@@H]1CN([C@H](C)CO)C(=O)Cc2cc(NC(=O)c3ccncc3)ccc2O[C@@H]1CN(C)Cc1ccc(Oc2ccccc2)cc1 | inactive: 0.964
34 | CC(=O)N[C@@H](C=O)[C@@H](O)[C@H](O)[C@H](O)CO | inactive: 1.02
35 | COC(=O)[C@@H](C)S(=O)(=O)NC(=O)c1cnc2ccccn2c1=O | inactive: 0.996
36 | COc1ccc2c3c([nH]c2c1)[C@@H](CO)N(C[C@]13CCN(CC1)C(=O)c1ccccc1F)C(=O)Nc1ccccc1F | inactive: 1.01
37 | C[C@@H]1CN([C@H](C)CO)C(=O)c2cccc(NC(=O)Nc3ccccc3)c2O[C@@H]1CN(C)Cc1ccc(Oc2ccccc2)cc1 | inactive: 0.965
38 | CCOC(=O)C(=O)NCc1nnnn1-c1ccccc1 | inactive: 1.01
39 | O=C(C[C@H]1C=C[C@@H](NC(=O)c2cccc(F)c2)[C@@H](CO)O1)NCCN1CCCC1 | inactive: 0.99
40 | COc1ccc(S(=O)(=O)Nc2cccc3c2O[C@H](CN(C)S(=O)(=O)c2ccc(F)cc2)[C@H](C)CN([C@H](C)CO)C3=O)cc1 | inactive: 0.974
41 | C[C@H](CO)N1C[C@H](C)[C@H](CN(C)C(=O)C2CCCCC2)OCCCC[C@H](C)Oc2ccc(NS(=O)(=O)c3ccccc3)cc2C1=O | inactive: 0.999
42 | C[C@@H]1CCCCO[C@H](CN(C)C(=O)Nc2ccc3c(c2)OCO3)[C@H](C)CN([C@H](C)CO)C(=O)c2cc(NS(=O)(=O)c3ccccc3)ccc2O1 | inactive: 0.973

Row | SMILES | relative growth
43 | CN(C)CCCCCCNC(=O)[C@@H]1C[C@@H]2C(=O)NCC(=O)N2[C@@H]1c1cccc(OCCO)c1 | inactive: 0.996
44 | Cc1ccc(S(=O)(=O)N(C)C[C@@H]2Oc3ccc(NS(=O)(=O)c4cccs4)cc3CC(=O)N([C@H](C)CO)C[C@@H]2C)cc1 | inactive: 1
45 | C=CC[C@H](CC(=O)NCCO)C(=O)N[C@H](COC(=O)[C@@H](CC=C)CC(=O)OC(C)(C)C)Cc1ccccc1 | inactive: 0.997
46 | C[C@@H]1CN([C@@H](C)CO)C(=O)Cc2cc(NC(=O)Cn3cnnn3)ccc2O[C@H]1CN(C)C(=O)Nc1ccc(F)cc1 | inactive: 1.01
47 | CN(C)CC(=O)N[C@H]1C=C[C@H](CC(=O)O)O[C@H]1CO | inactive: 0.985
48 | O=C(C[C@H]1C[C@H]2c3cc(NS(=O)(=O)c4ccc(F)cc4)ccc3O[C@H]2[C@@H](CO)O1)NCc1cccnc1 | inactive: 1
49 | C[C@@H]1CCCCO[C@@H](CN(C)C(=O)C2CCCCC2)[C@H](C)CN([C@@H](C)CO)C(=O)c2cc(NS(=O)(=O)c3ccc(F)cc3)ccc2O1 | inactive: 1.01
50 | COc1ccc(-c2cnc3c(c2)C(=O)N([C@@H](C)CO)C[C@@H](C)[C@H](CN(C)C(=O)C2CCOCC2)O3)cc1 | inactive: 0.992
51 | C[C@@H]1CCCCO[C@@H](CN(C)CC2CCCCC2)[C@@H](C)CN([C@H](C)CO)C(=O)c2cc(NC(=O)C3CCCCC3)ccc2O1 | inactive: 0.957
52 | Cc1noc(C)c1NC(=O)Nc1cccc2c1O[C@@H](CN(C)Cc1ccc(C(=O)Nc3ccccc3N)cc1)[C@@H](C)CN([C@@H](C)CO)C2=O | inactive: 0.998
53 | COc1ccc(CCN2C(=O)[C@@]3(Cc4ccccc42)c2ccccc2C(=O)N(C2CCCCC2)[C@H]3c2ccc(CO)cc2)cc1 | inactive: 0.975
54 | COc1ccc(S(=O)(=O)N(C)C[C@@H]2OCCCC[C@H](C)Oc3ccc(NC(=O)NC4CCCCC4)cc3C(=O)N([C@@H](C)CO)C[C@@H]2C)cc1 | inactive: 1.01
55 | C#CC1(OC(C)=O)CCC2C3CCC4=CC(=NO)CCC4C3CCC21CC (stereo not drawn) | inactive: 0.916
56 | CCCCOC(=O)CCCCCCC(=O)OCCCC | inactive: 0.919
57 | CO[C@@H]1CN(C)C(=O)c2cc(NS(=O)(=O)c3cn(C)cn3)ccc2OC[C@@H](C)N(Cc2cccc(F)c2)C[C@H]1C | inactive: 1.01
58 | COc1ccc(S(=O)(=O)N(C)C[C@@H]2Oc3ccc(NS(=O)(=O)c4cccs4)cc3C(=O)N([C@@H](C)CO)C[C@H]2C)cc1 | inactive: 0.905
59 | Cc1noc(C)c1NC(=O)Nc1ccc2c(c1)CC(=O)N([C@H](C)CO)C[C@@H](C)[C@@H](CN(C)S(=O)(=O)c1ccccc1)O2 | inactive: 0.993
60 | CC(C)CC#Cc1ccc2c(c1)O[C@H](CN(C)C(=O)c1ccncc1)[C@@H](C)CN([C@@H](C)CO)S2(=O)=O | inactive: 0.991
61 | O=C(Cn1ccc([N+](=O)[O-])n1)n1cccn1 | inactive: 0.987
62 | COc1ccc2c3c(n(c2c1)C)[C@@H](CO)N(C[C@]13CN(C1)C(=O)CN(C)C)C(=O)CN(C)C | inactive: 1.02
63 | Cc1noc(C)c1NC(=O)N(C)C[C@@H]1OCCCC[C@@H](C)Oc2ccc(NS(=O)(=O)c3ccc(Cl)cc3)cc2C(=O)N([C@H](C)CO)C[C@@H]1C | inactive: 0.999
